Variants at the floor of the assay are shown more often than the library holds them.

B1: TPR 5TU (parent)
chain: GGAUCUUCUCGAUCUAACAAAAAAGACAAAUCUGCCACAAAGCUUGAGAGCAUCUUCGGAUGCAGAGGCGGCAGCCUUCGGUGGCGCGAUAGCGCCAACGUUCUCAACUAUGACACGCAAAACGCGUGCUCCGUUGAAUGGAGUUUAUCAUG

Variants of B1 are the subject of the series. The experiment in a line: polymerase ribozyme fitness, log enrichment relative to wild type (log ratio); higher = more active; in vitro selection for triplet polymerase activity. The essentials:
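One round of in vitro selection, in triplicate, was applied to PCR-built, transcribed mutant libraries of each subunit of a heterodimeric triplet polymerase ribozyme. The steps were annealing with a biotinylated primer, partner subunit and triplets, incubation frozen at −7 °C, gel excision of extended constructs, streptavidin-bead capture and RT-PCR. Fitness is the logarithm, base 2, of genotype enrichment over wild-type enrichment from inverse-variance-weighted replicate averages of Illumina-sequenced inputs and outputs, keeping genotypes with ≥10 input reads and ≥1 read per output.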
For the variant GGAUCUUCUCGAUCUAACAAAAAAGACAAAUCUGCCACAAAGCUUGAGAGCAUCUUCGGAUGCAGAGGCGGCUGCCUUCGGUGGCGCGAUAGCGCCAACGGUCUCAACUAUGACACCCAAAACGCGUGCUCCGUUGAAUGGAGUUUAUCAUU [A73U U101G G117C G152U], the “polymerase ribozyme fitness (log ratio)” value was no more than -4.2. As for GGAUCUUCUCGAUCUAACAAAAAAGACAAAUCUGCCACAAAGCUUGAGAGCAUCUUCGGAUGCAGAGGCGGCACCCCUCGGUGGCGCGAUAGCGCCAACGUUCUCAACUAUGACACGCAAAACGCGUGCUCCGUUGAAUGGGGUUUAUCAUG [G74C U77C A142G], the figure is no more than -4.2; as for GGAUCUUCUCGAUCUAACAAAAAAGACAAAUCUGCCACAAAGCUUGAGAGCAUCUUCGGAUGCAGAGGCGGCAACCUUCAGUGGAGCGAUAACGCCAACGUUCUCAACUAUGACACGCAAAACGAGUGCUCCGUUCAGUGGAGUUUAUCAUG [G74A G80A C85A G92A C125A G136C A138G], no more than -4.2; as for GGAUCUUCUCGAUCUAACAAAAAAGACAAAUCUGCCACAAAGCUUGAGAGCAUCUUCGGAUGCAGAGGCGGCUGCCUUCGGUGGCGCGAUAGCGCCAACGUUCGCAACUAUGACACGGAAAACGCGUGCUCCGUUGAAUGGAGUUUAUCAUG [A73U U104G C118G], no more than -4.2. In the case of GGAUCUUCUCGAUCUAACAAAAAAGACAAAUCUGCCACAAAGCUUGAGAGCAUCUUCGGAUGCAGAGGCGGCUGCCUUCGGAGGCGCGAUAGCGCCAACGUUCUCGACUAUGGCACUCAAAACCCGUGCUCCGUUGAAUGGAGUUUAUCAUG [A73U U82A A106G A113G G117U G124C] it was no more than -4.2; in that of GGAUCUUCUCGAUCUAACAAAAAAGACAAAUCUGCCACAAAGCUUGAGAGCAUCUUCGGAUGCAGAGGCGGCACCCUUCGGUGGCGCGAUAGCGCCAACGUUCUCAACUAUAACACGCAAAACGCGUGCUCCGUUGAAUGGAGUUUGUCAUG [G74C G112A A147G], no more than -4.2. For the variant GGAUCUUCUCGAUCUAACAAAAAAGACAAAUCUGCCACAAAGCUUGAGAGCAUCUUCGGAUGCAGAGGCGGCAACCGUCGGUGGCGCGAUAGCGCCAACGUUCUCAACUAUGACACGCAAAACGCGUGCUCCGUUGAAUGGAGUUUAUCAUG [G74A U77G], the “polymerase ribozyme fitness (log ratio)” value was no more than -4.2.

With GGAUCUUCUCGAUCUAACAAAAAAGACAAAUCUGCCACAAAGCUUGAGAGCAUCUUCGGAUGCAGAGGCGGCAACCUUCGGUGGCGCGAUCGCGCCAAUGUUCUCAACUAUGACACUCAAAACGCGUGCUCCGUUUAAUGGAGUUUUUCCUG [G74A A91C C99U G117U G136U A147U A150C], the “polymerase ribozyme fitness (log ratio)” value is no more than -4.2. On to GGAUCUUCUCGAUCUAACAAAAAAGACAAAUCUGCCACAAAGCUUGAGAGCAUCUUCGGAUGCAGAGGCGGCAACCUUCGGUGGCGCCAUAGCGCCAACGUUCUCAACUAUGACACGCAAAACGCGUGCUCCGUUGAAUGGAGUUUAGCAUG [G74A G88C U148G], for which the “polymerase ribozyme fitness (log ratio)” value was no more than -4.2.

For GGAUCUUCUCGAUCUAACAAAAAAGACAAAUCUGCCACAAAGCUUGAGAGCAUCUUCGGAUGCAGAGGCGGCAACCUUUGGUGGCCCGAUAGCGCCAACGUUCGCAACUAUGACGCGCAAAACGCGUGCUCCGUUGAAUGGAGUUUAUGAAG [G74A C79U G86C U104G A115G C149G U151A], the “polymerase ribozyme fitness (log ratio)” value was no more than -4.2. As for GGAUCUUCUCGAUCUAACAAAAAAGACAAAUCUGCCACAAAGCUUGAGAGCAUCUUCGGAUGCAGAGGCGGCAACCGUCGGUGGCGCGAUAGCGCCAACGUUCUCAAUUAUGACACGCAAAACGCGUGCUCCAUUGAAUGGAGUUCAUCAUG [G74A U77G C108U G133A U146C], the figure is no more than -4.2; as for GGAUCUUCUCGAUCUAACAAAAAAGACAAAUCUGCCACAAAGCUUGAGAGCAUCUUCGGAUGCAGAGGCGGCUGCCUUCGGUGGCGCGAUAGCGCCAACGCUCUCAACUAUGACACGCAAAACGCGUGCUCCGUUGAUUGGAGUUUAUCAUG [A73U U101C A138U], no more than -4.2. As to GGAUCUUCUCGAUCUAACAAAAAAGACAAAUCUGCCACAAAGCUUGAGAGCAUCUUCGGAUGCAGAGGCGGCACACUUCGGUGGCGCGAUAGCGCCAACGUUCUCAACUAUGACACGCAAAACGCGUGCUCCGUUGAAUGUAGUUUAUCAUG [G74C C75A G141U], the “polymerase ribozyme fitness (log ratio)” value is no more than -4.2.

Take GGAUCUUCUCGAUCUAACAAAAAAGACAAAUCUGCCACAAAGCUUGAGAGCAUCUUCGGAUGCAGAGGCGGCACCCUUCGGUGGCGCUUUAGCGCCAACGUUCUCAACUAUGACACGCAAAACGCGUGCUCCGUUGAAUGGAGUUAAUCAUG [G74C G88U A89U U146A]: the “polymerase ribozyme fitness (log ratio)” value was no more than -4.2. Consider GGAUCUUCUCGAUCUAACAAAAAAGACAAAUCUGCCACAAAGCUUGAGAGCAUCUUCGGAUGCAGAGGCGGCUGCCUUCGGUGGCGCGAUAUUGCCAACGUUCUCAAUUAUGACACGCAAAACGUGUGCUCCGUUGAAUGGAGUUUAUCAUG [A73U G92U C93U C108U C125U], for which the “polymerase ribozyme fitness (log ratio)” value is no more than -4.2. In the case of GGAUCUUCUCGAUCUAACAAAAAAGACAAAUCUGCCACAAAGCUUGAGAGCAUCUUCGGAUGCAGAGGCGGCAACCUUCGGUGGUGCGAUAGCGCCAACGUUCUCAACUAUGACACGCAAAACGCGUGCUCCGUUCAAUGGAGUUUAUCAUG [G74A C85U G136C] it was no more than -4.2.

GGAUCUUCUCGAUCUAACAAAAAAGACAAAUCUGCCACAAAGCUUGAGAGCAUCUUCGGAUGCAGAGGCGGCUGCCUUCGGUGUCGCGAUAGCGCCAACGUUCUCAACUAUGACACGCAAAACGCGUGCUCCGUUGAAUGGAGUUUAUCAUA [A73U G84U G152A]: the “polymerase ribozyme fitness (log ratio)” value was -3.83.

In the case of GGAUCUUCUCGAUCUAACAAAAAAGACAAAUCUGCCACAAAGCUUGAGAGCAUCUUCGGAUGCAGAGGCGGCUGCCCUCGAUGGCGCGAUAGCGCCAACGUUCUCAACUAUGACACGCAAAACGCGUGCUCCGUUGAAUGGAGUUUAUCAUG [A73U U77C G81A], the “polymerase ribozyme fitness (log ratio)” value is no more than -4.2. On to GGAUCUUCUCGAUCUAACAAAAAAGACAAAUCUGCCACAAAGCUUGAGAGCAUCUUCGGAUGCAGAGGCGGCACCCUUCGGUGGCGCGAUAGCGCCAACGUUCUCAACUAUGACAGGCAAAACGCGUGCUCCGUUGAAUGGAGUUUAUCUUG [G74C C116G A150U], for which the “polymerase ribozyme fitness (log ratio)” value was no more than -4.2.
